The text below walks through data of ChEMBL document CHEMBL4888484, “Replenishing the malaria drug discovery pipeline: Screening and hit evaluation of the MMV Hit Generation Library 1 (HGL1) against asexual blood stage Plasmodium falciparum ,using a nano luciferase reporter read-out” (2022).

SMILES strings stand for the structures. About 540 (0.36%) of roughly 150,000 compounds showed an effect of 50% or more. This is one part of the list.

The test relates to Plasmodium falciparum. Kind of test: Primary screen in NF54 nanoGlo assay, in single point, at 2uM, 72h; a lower Z score goes with more inhibition. The following applies: timepoint 72 hour. It is filed as functional, Erythrocyte.
In the case of `CC(C)C1CCC(C)C(C(C#N)(C#N)C(C#N)C#N)C1=O` (centres undefined), the “% Inhibition” value was -12% and the Z score stood at 1.47.

Turning to `C[C@@H](C#N)NS(=O)(=O)c1sccc1Cl`, the “% Inhibition” value is -8% and the Z score was found to be 1.23.

On to `Cn1cc(C2OCCC2CNCc2ccc(C#N)cc2)cn1` (centres undefined), for which the “% Inhibition” value is listed as -9% and the Z score is listed as 1.54.

For the compound `O=C(Cn1c(=O)n(Cc2ccc(F)cc2)c(=O)c2sccc21)Nc1ccc(F)c(Cl)c1`, the “% Inhibition” value is -2% and the Z score is on record as 0.23.

In the case of `CCc1ccc(CN(C)Cc2cc3n(n2)CCCN(C[C@H]2CCOC2)C3)nc1`, the “% Inhibition” value worked out at 6% and the Z score is on record as -1.

With `CCCN1C(=O)c2ccccc2N2C(=O)CC[C@@]12C(=O)Nc1ccc(OC)cc1`, the “% Inhibition” value was 88% and the Z score was -16.69.

With `Cc1ncsc1C(=O)N1CCOC[C@@H]1CC(=O)c1ccccc1`, the “% Inhibition” value is -7% and the Z score was determined as 1.02.

As to `Cn1cc(CN2CCc3[nH]ncc3C2)c(NC(=O)OC(C)(C)C)n1`, the “% Inhibition” value is reported as -6% and the Z score was found to be 1.24.

`Cn1cc(C(=O)N(Cc2c(F)cccc2F)C2CC2)cn1`: the “% Inhibition” value is 1% and the Z score is on record as -0.12.

In the case of `CCOc1ccc(-c2noc(-c3cn(-c4ccc(OC)c(OC)c4)c(=O)c4ccccc34)n2)cc1OC`, the “% Inhibition” value is given as 15% and the Z score is recorded as -1.78.

For the compound `Cc1cccnc1Cn1cnc2c(=O)[nH]c(N[C@@H](C)c3ccccc3)nc(=O)c21`, the “% Inhibition” value is recorded as -5% and the Z score is 0.44.

With `CCn1nc(-n2cnnc2)c(NC(=O)c2cc(Br)ccc2OC)c1C`, the “% Inhibition” value is 30% and the Z score is -4.

`O=C1NC[C@H]2O[C@H](CCOc3ccccc3C(=O)N3CCN(Cc4ccc(F)c(F)c4)C[C@@H]13)CC[C@H]2n1cc(CN2CCOCC2)nn1`: the “% Inhibition” value was -2% and the Z score is reported as 0.34.

For `O=C(NC1CCC(CC2CCC(NC(=O)c3cccnc3)CC2)CC1)c1cccnc1` (centres undefined), the “% Inhibition” value is listed as -26% and the Z score was determined as 3.

For `COc1ccc(NC(=O)N2CCCN(c3nc4cc(F)ccc4n4cccc34)CC2)c(OC)c1`, the “% Inhibition” value is recorded as 12% and the Z score was -2.09.

With `OC1Cc2ccccc2C1NCc1cccnc1` (centres undefined), the “% Inhibition” value is 4% and the Z score is recorded as -0.61.

For `Cc1cccc(OC2CCN(c3cc(N)ncn3)CC2)c1`, the “% Inhibition” value is listed as -11% and the Z score is given as 1.33.

Turning to `COc1cc(F)c(CN2[C@@H]3CC[C@H]2CNC(=O)C3)cc1OC`, the “% Inhibition” value is reported as -15% and the Z score is listed as 2.71.

Consider `FC(F)[C@@H]1CN(c2nnnn2-c2ccccc2)CCO1`, for which the “% Inhibition” value is listed as -15% and the Z score is given as 2.23.

On to `CC1=C(c2ccc(C)c(C)c2)S(=O)(=O)N=C1N1CCC(NC(=O)C2CCCC2)CC1`, for which the “% Inhibition” value is on record as -11% and the Z score came out at 2.17.

For `CC(=O)N1CCOC[C@H]1c1nc(Cc2cccc3cccnc23)no1`, the “% Inhibition” value was -6% and the Z score is 1.11.

Turning to `CC(C)Oc1cccc(CCNC(=O)N2CCCC3(CCOCC3)C2)c1`, the “% Inhibition” value is on record as -7% and the Z score is 0.62.

Turning to `CC(C)(C)c1ncnc(N)c1Br`, the “% Inhibition” value is on record as 1% and the Z score is -0.2.

Take `COc1cc(C)ccc1OCCC(=O)NCc1ccnn1C`: the “% Inhibition” value is reported as -4% and the Z score stood at 0.53.

Turning to `Cc1ccc([C@@H]2C=C(c3ccc(-c4ccccc4)cc3)Nc3nnnn32)cc1`, the “% Inhibition” value was determined as 1% and the Z score is on record as -0.1.

As for `Cn1cc(N2C[C@@H](NC(=O)OC(C)(C)C)CC2=O)cn1`, the “% Inhibition” value was 6% and the Z score is -1.19.

Regarding `O=C(NCc1cccs1)NC[C@H](O)c1ccsc1`, the “% Inhibition” value is -14% and the Z score is 2.36.

With `CCc1nn(C)c(Cl)c1CNCC1CN(C(=O)c2ccccc2)C2CCN1C2` (centres undefined), the “% Inhibition” value amounted to 0% and the Z score came to 0.04.

With `COc1cc(C(=O)Nc2cccnc2)ncn1`, the “% Inhibition” value is recorded as -8% and the Z score was 1.37.

For `CCCN(C[C@H]1CCCCO1)C(=O)c1cncc(Br)c1`, the “% Inhibition” value was -16% and the Z score worked out at 3.02.

As to `Cc1ccc(-n2nnc(C(=O)Nc3ccc4c(c3)OCCO4)c2-c2cccnc2)cc1C`, the “% Inhibition” value is listed as -1% and the Z score amounted to 0.14.

`CCOc1cccc(C(=O)N2C[C@@H](CN3C[C@@H](C)O[C@@H](C)C3)[C@@H](CO)C2)c1`: the “% Inhibition” value was -10% and the Z score is listed as 1.27.

With `Cc1cc(-c2cc(F)cc3cccnc23)c(O)nc1C`, the “% Inhibition” value was -1% and the Z score stood at 0.17.

On to `Cc1ccc(C)c(-c2cc(C(=O)O)cc(S(=O)(=O)N3CCN(C)CC3)c2)c1`, for which the “% Inhibition” value is -3% and the Z score amounted to 0.4.

Take `CC(=O)NC1CCC(NCC2(c3c(F)cccc3F)CC2)CC1` (centres undefined): the “% Inhibition” value is -1% and the Z score was found to be 0.06.

With `COc1ccc(-c2ccc(N3CCN(C(=O)CN(Cc4ccc(F)cc4)C(=O)c4ccccc4F)CC3)nn2)cc1OC`, the “% Inhibition” value is given as -8% and the Z score is recorded as 1.39.

Turning to `O=C(NCC1OCCc2sccc21)C1CCN(C2CCCCC2)C1` (centres undefined), the “% Inhibition” value is recorded as -2% and the Z score is listed as 0.19.

For the compound `O=C(Nc1cncc(F)c1)c1ccsc1`, the “% Inhibition” value is listed as -12% and the Z score is listed as 1.89.

Take `CC1(C)CCCN(CCNCc2cc(C(N)=O)cs2)C1`: the “% Inhibition” value is -9% and the Z score is reported as 0.91.

In the case of `Cn1ccn2ncc(C(=O)Nc3ccc(N4CCCC4)c4ncccc34)c12`, the “% Inhibition” value is listed as -17% and the Z score was determined as 1.86.

Regarding `C1=C[C@@H]2C[C@H]1C[C@@H]2c1nc(C2CC2)nn1-c1ccccn1`, the “% Inhibition” value was -12% and the Z score is on record as 1.55.

Consider `CCN(CC)C(=O)CN1C(=O)NC2(CCCCCCC2)C1=O`, for which the “% Inhibition” value is -9% and the Z score turned out to be 1.15.

What is called % Inhibition is the relative decrease from the control value, in per cent.
